Experimental data: patent US20080075796A1, “Compositions and Methods for Controlling Insects” (TyraTech, Inc., priority 2003, published 2008)
“And” between values parts separate entries of the source, which are not always exact repeats. Equal entries are not always repeated.

Key:
[1] = test system: Drosophila melanogaster Or83b olfactory receptor, SEQ ID NO: 6; assay: Interaction of plant essential oils with Or83b receptor binding site (3H-tyramine); details: membranes, FIGS. 16, 18-21
Method: (§1) Total RNA is prepared from the head and antenna of wild type Drosophila melanogaster using Trizol Reagent (Invitrogen). They are homogenized in the Trizol using a motor driven teflon pestle and glass homogenizer. RNA is then prepared as per the manufacturer's instructions and includes removal of proteoglycans and polysaccharides by precipitation. The total RNA is reverse transcribed using oligo-dT as a primer and MuLV reverse transcriptase (Applied Biosystems). […] The Sense oligonucleotides contain Not I sites and the antisense oligonucleotides contain Sac II sites. Both restriction sites are indicated by underlined nucleotide. […] For PCR amplification of Or83b, Vent polymerase (New England Biolabs) is used with the following conditions: about 95° C., about 5 min for about 1 cycle; about 95° C., about 30 sec; and about 70° C., about 90 sec for about 40 cycles; and about 70° C., about 10 min for about 1 cycle. For PCR amplification of Or43a, the Failsafe PCR premix selection kit (Epicentre Technologies) is used with the following conditions: about 95° C., about 5 mill for about 1 cycle; about 95° C., about 30 sec; about 60° C., about 30 sec and about 70° C., about 90 sec for about 50 cycles; and about 70° C., about 10 min for about 1 cycle. […] The PCR products are digested with Sac II and Not I, gel purified and ligated into pAC 5.1/N5 His B (Invitrogen). Inserts are sequenced on both strands by automated fluorescent sequencing (Vanderbilt Cancer Center).
(§2) To address whether Or83b receptor and Or43a receptor contain a specific binding site for tyramine, membranes expressing Or83b receptor or Or43a receptor are prepared from cells expressing either receptor, as described above, and used for competitive binding with ^3H-tyramine. The binding assay protocol is exactly as described for cells expressing TyrR, as described above.
(§3) The cells expressing one of the olfactory receptors are used to investigate the interaction of plant essential oils with these receptors and the signaling cascade downstream of each receptor.
(§4) For the binding activity, membranes are prepared from each cell model and used to investigate the interaction of plant essential oil with the receptor binding site.

[2] = test system: Or83b and Or43a receptors; assay: Interaction of plant essential oils with olfactory receptor binding site (membranes, ^3H-tyramine); design: species or system Drosophila melanogaster; details: membranes incubated with ^3H-tyramine
Method: as §3, §4

[3] = target: T1, Or43a receptor (Drosophila melanogaster, UniProt P81917, L154V); assay: Intracellular Ca^2+ mobilization in Schneider cells expressing Or43a receptor; format: cell-based; details: before vs approximately 150 seconds after treatment
T1 construct: His (from vector pAc5.1/V5-His B) (C); expressed in transfected cells
Method: Intracellular calcium ion concentrations ([Ca^2+]i) are measured by using the acetoxymethyl (AM) ester of the fluorescent indicator fura-2 (Enan, et al., Biochem. Pharmacol vol 51, 447-454). In this study, cells expressing tyramine receptor are grown under standard conditions. A cell suspension is prepared in assay buffer (140 mM NaCL, 10 mM HEPES, 10 mM glucose, 5 mM KCl, 1 mM CaCl2, 1 mM MgCl2) and cell number adjusted to about 2×10^6 cells per ml. Briefly, about 1.0 ml cell suspension (about 2×10^6 cells) is incubated with about 5 μM Fura 2/AM for about 30 min at about 28° C. After incubation, the cells are pelleted at about 3700 rpm for about 10 sec at room temperature and then resuspended in about 1.5 ml assay buffer. [Ca^2+]i changes are analyzed in spectrofluorometer in the presence and absence of test chemicals. Excitation wave lengths are about 340 nm (generated by Ca^2+-bound fura-2) and about 380 nm (corresponding to Ca^2+-free fura-2). The fluorescence intensity is monitored at an emission wave length of about 510 nm. No absorbance of fluorescence artifacts are observed with any of the compounds used. The ratio of about 340/380 nm is calculated and plotted as a function of time.
Intracellular Ca^2+ levels are measured using the method described above in Example 3.
Changes in intracellular Ca^2+ levels are calculated based on the difference between the 340/380 fluorescence ratios before and after approximately 150 seconds of the treatment.

[4] = test system: Drosophila melanogaster Or43a olfactory receptor, SEQ ID NO: 4; assay: Interaction of plant essential oils with Or43a receptor binding site (3H-tyramine); details: membranes, FIGS. 16, 17, 19-21
Method: as §1, §2, §3, §4

[5] = test system: farm ants; assay: Repellent effect on farm ants (treated filter paper); format: in vivo
Method: Adult insect are randomly selected for testing the repellent effect of compositions and are not individually marked. About 5 insects per replicate are used. About 3 replicates are used for each treatment. Untreated control tests are included with only solvent (acetone) application to an equal sized population/replications, held under identical conditions. A filter paper (about 80 cm^2) is treated with the composition (about 100 mg in […] acetone). After about 3 min of air drying, the filter paper is placed in a dish and repellency against insects is performed. Insects are released to the dish, one insect at a time at the far end of the dish. Using one or more stopwatches, the time spent on either the filter paper or the untreated surface of the dish is recorded up to about 300 seconds. Repellency ratio (RR) is calculated as follows: RR=[(time on control surface−time on treated surface)/total time of test].
The repellent effect of various plant essential oils is tested by treating a filter paper with the test oils. After about five minutes at room temperature, the paper is placed in a dish and ants are introduced one at a time. […] Oils are tested alone. Additionally, oils are mixed to form compositions, which are then tested.

[6] = Day 0, time on treated surface of up to about 300 seconds

T1 sequence (P81917 whole entry L154V): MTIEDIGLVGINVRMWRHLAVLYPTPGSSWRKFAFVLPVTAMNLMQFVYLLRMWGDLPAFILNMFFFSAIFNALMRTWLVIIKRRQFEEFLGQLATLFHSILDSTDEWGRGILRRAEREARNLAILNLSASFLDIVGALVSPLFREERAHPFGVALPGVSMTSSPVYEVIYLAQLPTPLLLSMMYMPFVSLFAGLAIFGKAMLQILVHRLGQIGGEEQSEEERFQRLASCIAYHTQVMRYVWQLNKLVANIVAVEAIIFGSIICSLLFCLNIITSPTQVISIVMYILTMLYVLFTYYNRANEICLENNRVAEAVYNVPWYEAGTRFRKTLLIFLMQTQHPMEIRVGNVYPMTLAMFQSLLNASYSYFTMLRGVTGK

O=CCc1ccccc1 [phenyl acetaldehyde]
interaction with the olfactory receptor [1]: interact
interaction with the olfactory receptors [2]: interact with the olfactory receptors
change in intracellular Ca^2+ levels (340/380 fluorescence ratio) [3]: calcium mobilization
interaction with the olfactory receptor [4]: interact

CC(C)=CCC/C(C)=C/CO [geraniol]
interaction with the olfactory receptor [1]: interact
Repellency %, R % ([5]; Day 0): 54.0%
sec. on T surface [5, 6]: 69 s and 69.0 s
Repellency %, R % ([5]; Day 1): 14.0%
sec. on T surface ([5]; Day 1): 129.0 s and 129.4 s
interaction with the olfactory receptors [2]: interact with the olfactory receptors
change in intracellular Ca^2+ levels (340/380 fluorescence ratio) [3]: calcium mobilization
interaction with the olfactory receptor [4]: interact

CC(=O)OCc1ccc2c(c1)OCO2 [piperonyl acetate]
interaction with the olfactory receptor [1]: interact
interaction with the olfactory receptors [2]: interact with the olfactory receptors
change in intracellular Ca^2+ levels (340/380 fluorescence ratio) [3]: calcium mobilization
interaction with the olfactory receptor [4]: interact

Cc1ccc(C(C)C)c(O)c1 [thymol]
interaction with the olfactory receptor [1]: interact
Repellency %, R % ([5]; Day 0): 58.3%
sec. on T surface [5, 6]: 62.6 s and 62.0 s
Repellency %, R % ([5]; Day 1): 30.4%
sec. on T surface ([5]; Day 1): 104.4 s
interaction with the olfactory receptors [2]: interact with the olfactory receptors
interaction with the olfactory receptor [4]: interact

C=CCc1ccc(O)c(OC)c1 [eugenol]
interaction with the olfactory receptor [1]: interact
interaction with the olfactory receptors [2]: interact with the olfactory receptors
change in intracellular Ca^2+ levels (340/380 fluorescence ratio) [3]: calcium mobilization
interaction with the olfactory receptor [4]: interact
